Assay results as given in the supplement of paper PMC9446081.
In all, about 39,000 compounds went through this assay and about 220 (0.56%) showed activity. The list shows a part of the results.

What follows are molecules tested on Escherichia coli K-12 BW25113 (assay: relative growth (OD600 normalised to plate interquartile mean) (fraction); higher = less growth inhibition, active = 0.2 or less). Settings: 50 µM; LB; incubation time: overnight (16-24 h).
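Also: static incubation at 37 °C against the wild-type strain, values averaged over two biological replicates.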

SMILES | relative growth
C[C@@H]1CN([C@H](C)CO)C(=O)c2cccc(NC(=O)CCCCCC(=O)Nc3ccccc3N)c2O[C@H]1CN(C)CC1CCCCC1 | inactive: 0.952
C[C@@H]1CCCCO[C@H](CN(C)Cc2ccc3c(c2)OCO3)[C@H](C)CN([C@H](C)CO)C(=O)c2cc(NC(=O)c3ccccc3)ccc2O1 | inactive: 1.02
C[C@@H]1CN([C@@H](C)CO)C(=O)c2cccc(NC(=O)C3CC3)c2O[C@H]1CN(C)S(=O)(=O)c1ccc(F)cc1 | inactive: 0.993
C[C@H](CO)N1C[C@H](C)[C@@H](CN(C)Cc2ccc(-c3ccccc3)cc2)Oc2ccc(NS(=O)(=O)c3cccs3)cc2CC1=O | inactive: 0.968
C[C@@H]1CN([C@@H](C)CO)C(=O)c2cccc(NC(=O)Nc3ccccc3)c2O[C@@H]1CN(C)Cc1ccc(Oc2ccccc2)cc1 | inactive: 1
C[C@H](CO)N1C[C@H](C)[C@@H](CN(C)S(=O)(=O)c2ccccc2)Oc2ccc(NS(=O)(=O)c3cccs3)cc2C1=O | inactive: 0.985
COc1ccc(S(=O)(=O)N(C)C[C@@H]2OCCCC[C@H](C)Oc3ccc(NS(=O)(=O)c4cn(C)cn4)cc3C(=O)N([C@H](C)CO)C[C@@H]2C)cc1 | inactive: 0.883
C[C@@H]1CN([C@H](C)CO)C(=O)c2cccc(NC(=O)Nc3ccc4c(c3)OCO4)c2O[C@@H]1CN(C)Cc1ccc(-c2ccccc2)cc1 | inactive: 1.02
CN(C)CCCNC(=O)C[C@H]1CC[C@H]2[C@H](COc3ccc(NS(C)(=O)=O)cc3C(=O)N2C)O1 | inactive: 1.01
O=C(O)CCCCCCCC(O)C(O)CCCCCCO (configuration not stated) | inactive: 1.14
C[C@H]1CN(C(=O)N(C)C)CCN1C(=O)N(C)C | inactive: 0.972
COc1ccc(NC(=O)N(C)C[C@H]2Oc3ccc(NC(=O)CCCN(C)C)cc3C(=O)N([C@@H](C)CO)C[C@H]2C)cc1 | inactive: 0.987
C[C@H]1CN([C@@H](C)CO)C(=O)c2cccc(NC(=O)Nc3cccc4ccccc34)c2O[C@H]1CN(C)S(=O)(=O)c1ccccc1 | inactive: 0.973
C[C@H](CO)N1C[C@H](C)[C@H](CN(C)S(=O)(=O)c2cccs2)Oc2ccc(NS(=O)(=O)c3ccccc3)cc2CC1=O | inactive: 1.01
C[C@@H]1CN([C@H](C)CO)C(=O)c2cc(NC(=O)C3CC3)ccc2O[C@H]1CN(C)S(=O)(=O)c1cccs1 | inactive: 0.992
C[C@H](CO)N1C[C@H](C)[C@@H](CN(C)S(=O)(=O)c2ccc(Cl)cc2)Oc2ccc(NS(C)(=O)=O)cc2C1=O | inactive: 0.992
COc1ccc(CN(C)C[C@@H]2OCCCC[C@@H](C)Oc3ccc(NC(=O)NC4CCCCC4)cc3C(=O)N([C@H](C)CO)C[C@H]2C)cc1 | inactive: 0.995
COc1cccc(S(=O)(=O)Nc2ccc3c(c2)OC[C@H](C)N(C(=O)Cc2cccnc2)C[C@@H](C)[C@H](OC)CN(C)C3=O)c1 | inactive: 0.998
C[C@@H]1CN([C@@H](C)CO)C(=O)c2cc(NS(C)(=O)=O)ccc2O[C@H]1CN(C)S(=O)(=O)c1ccc(F)cc1 | inactive: 1.01

SMILES | relative growth
C[C@@H]1CN([C@H](C)CO)C(=O)c2cc(NC(=O)CCC(F)(F)F)ccc2O[C@@H](C)CCCCO[C@H]1CN(C)S(=O)(=O)c1ccccc1 | inactive: 1.03
C[C@H](CO)N1C[C@H](C)[C@H](CN(C)Cc2ccccc2)OCCCC[C@H](C)Oc2ccc(NC(=O)Nc3ccc(C(F)(F)F)cc3)cc2C1=O | inactive: 1.04
COCC(=O)N(C)C[C@H]1Oc2cc(-c3ccc(OC)cc3)ccc2S(=O)(=O)N([C@H](C)CO)C[C@H]1C | inactive: 0.993
Cc1ccc(S(=O)(=O)Nc2ccc3c(c2)C(=O)N([C@H](C)CO)C[C@H](C)[C@H](CN(C)C(=O)NC(C)C)O3)cc1 | inactive: 1.02
C[C@H]1CN([C@@H](C)CO)C(=O)Cc2cc(NC(=O)Nc3cccc4ccccc34)ccc2O[C@@H]1CN(C)S(=O)(=O)c1cccs1 | inactive: 1.02
CN(C)CC(=O)N1CC(=O)N2[C@H](C1)[C@@H](c1ccc(C#Cc3cccnc3)cc1)[C@@H]2CO | inactive: 0.973
C[C@@H]1CCCCO[C@@H](CN(C)S(=O)(=O)c2ccc(Cl)cc2)[C@@H](C)CN([C@@H](C)CO)C(=O)c2cc(NS(=O)(=O)c3ccc(Cl)cc3)ccc2O1 | inactive: 1
CC(C)NC(=O)Nc1ccc2c(c1)C(=O)N([C@H](C)CO)C[C@@H](C)[C@H](CN(C)C(=O)Nc1ccc(C(F)(F)F)cc1)OCCCC[C@H](C)O2 | inactive: 1.01
COc1ccccc1S(=O)(=O)N[C@@H]1CC[C@@H](CCNC(=O)C2CCOCC2)O[C@H]1CO | inactive: 0.995
COCCOC(=O)N1C(=O)[C@@]2(c3cc(C#CC4=CCCCC4)ccc31)[C@H](c1ccc(O)cc1)N1[C@H](c3ccccc3)[C@H](c3ccccc3)OC(=O)[C@H]1[C@@H]2C(=O)N1CCN(c2ncccn2)CC1 | inactive: 0.873
COc1ccc2c(=O)cc(-c3ccccc3OC)oc2c1 | inactive: 1.04
O=C(C[C@H]1CC[C@@H](NS(=O)(=O)c2ccccc2F)[C@H](CO)O1)NCCCN1CCOCC1 | inactive: 0.92
C[C@H](CO)N1C[C@H](C)[C@H](CN(C)C(=O)Nc2ccc(C(F)(F)F)cc2)OCCCC[C@H](C)Oc2ccc(N(C)C)cc2C1=O | inactive: 0.959
Cc1cccc(S(=O)(=O)N2C[C@H](O)COC[C@@H]3O[C@H](CC(=O)NCc4ccncn4)CC[C@H]32)c1 | inactive: 1.01
COc1ccc(S(=O)(=O)N(C)C[C@@H]2OCCCC[C@@H](C)Oc3ccc(NC(=O)c4ccccc4)cc3C(=O)N([C@@H](C)CO)C[C@H]2C)cc1 | inactive: 1.01
COc1ccc(S(=O)(=O)N(C)C[C@H]2Oc3c(NS(=O)(=O)c4ccccc4)cccc3C(=O)N([C@H](C)CO)C[C@@H]2C)cc1 | inactive: 1.02
COc1ccc(S(=O)(=O)Nc2ccc3c(c2)CC(=O)N([C@@H](C)CO)C[C@H](C)[C@H](CN(C)Cc2ccc(Oc4ccccc4)cc2)O3)cc1 | inactive: 0.989
CC(C)NC(=O)Nc1ccc2c(c1)C(=O)N([C@@H](C)CO)C[C@@H](C)[C@H](CN(C)CC1CCCCC1)OCCCC[C@H](C)O2 | inactive: 0.989
COc1ccc(-c2cn(CCNC(=O)[C@H](Cc3ccccc3)NS(=O)(=O)c3ccc(C)cc3)nn2)cc1OC | inactive: 0.987

SMILES | relative growth
C[C@@H]1CN([C@@H](C)CO)C(=O)c2cc(NC(=O)Nc3ccccc3)ccc2O[C@@H](C)CCCCO[C@@H]1CN(C)S(=O)(=O)c1ccccc1 | inactive: 0.991
C#C[C@@]1(O)[C@@H](CO)O[C@@H](n2ccc(N)nc2=O)[C@@H]1O | inactive: 0.989
C[C@H](CO)N1C[C@H](C)[C@H](CN(C)S(=O)(=O)c2cccs2)OCCCC[C@H](C)Oc2ccc(NS(C)(=O)=O)cc2C1=O | inactive: 1.01
C[C@@H]1CN([C@@H](C)CO)S(=O)(=O)c2ccc(-c3ccc(F)cc3)cc2O[C@@H]1CN(C)S(C)(=O)=O | inactive: 1
C[C@@H]1CN([C@H](C)CO)S(=O)(=O)c2ccc(C#CCN(C)C)cc2O[C@H]1CN(C)Cc1ccccn1 | inactive: 0.999
C[C@@H]1CN([C@H](C)CO)C(=O)c2cc(NS(=O)(=O)c3ccc(F)cc3)ccc2O[C@@H](C)CCCCO[C@H]1CN(C)Cc1ccc(Cl)c(Cl)c1 | inactive: 0.97
C[C@@H]1CN([C@@H](C)CO)C(=O)Cc2cc(NC(=O)C3CC3)ccc2O[C@H]1CN(C)S(=O)(=O)c1cccs1 | inactive: 0.999
Cc1ccc(S(=O)(=O)N[C@@H](Cc2ccccc2)C(=O)NCCCn2cc(-c3ccc(C(=O)NO)s3)nn2)cc1 | inactive: 0.978
C[C@H](CO)N1C[C@H](C)[C@H](CN(C)C(=O)NC2CCCCC2)OCCCC[C@H](C)Oc2ccc(NC(=O)c3ccccc3)cc2C1=O | inactive: 0.994
NCC[C@@H]1CC[C@@H](NC(=O)Cc2ccncc2)[C@H](CO)O1 | inactive: 0.966
Nc1nc(O[C@@H](c2ccc(-c3cccc(F)c3)cc2)C(F)(F)F)cc(-c2ccc(C[C@H](N)C(=O)O)cc2)n1 | inactive: 0.967
O=C(C[C@H]1C=C[C@@H](NC(=O)c2cnccn2)[C@H](CO)O1)NCc1ccccc1F | inactive: 0.998
C=CCC[C@H](Cc1ccc(F)cc1)C(=O)OC[C@H](Cc1c[nH]c2ccccc12)NC(=O)[C@H](CC=C)CC(=O)N[C@@H](CO)Cc1ccccc1 | inactive: 1.07
Cc1ccc(S(=O)(=O)N2C[C@H](O)COC[C@H]3O[C@H](CC(=O)N4CCc5ccccc5C4)CC[C@@H]32)cc1 | inactive: 0.967
C[C@@H]1CN([C@H](C)CO)C(=O)c2cc(NC(=O)CCC(F)(F)F)ccc2O[C@@H](C)CCCCO[C@@H]1CN(C)C(=O)c1ccccc1 | inactive: 1
COc1ccc(S(=O)(=O)N(C)C[C@H]2OCCCC[C@@H](C)Oc3ccc(NC(=O)CCC(F)(F)F)cc3C(=O)N([C@H](C)CO)C[C@H]2C)cc1 | inactive: 1.01
COc1cccc(NC(=O)N2C[C@H](O)COC[C@H]3O[C@H](CC(=O)NCc4ccccc4F)CC[C@@H]32)c1 | inactive: 0.986
CO[C@H]1CN(C)C(=O)c2ccc(NS(=O)(=O)c3cn(C)cn3)cc2OC[C@H](C)N(CC2CC2)C[C@H]1C | inactive: 0.99
COCC#Cc1ccc2c(c1)O[C@@H](CN(C)C(=O)c1ccccc1F)[C@@H](C)CN([C@@H](C)CO)S2(=O)=O | inactive: 1.03
